Test results taken from the supplement of paper PMC10126150.
Sequences with one replicate were seen in a single cluster, so their values are uncertain.

Test system: ATP
Assay: switch fluorescence ratio, 500 uM ATP over buffer (Cy3 cluster intensity, sum of 5 cycles each) (fold (ratio)); higher = stronger signal-on switching upon ATP binding; sequences stand for … in TCGTCGGCAGCGTCAGATGTGTATAAGAGACAGTTTTTTTTTTTTTTTTTTTTTTTTT…TC
Settings: aptamer strand: ATP DNA aptamer (quencher-CACCTGGGGGAGTATTGCGGAGGAAGG + anchor), 100 nM annealed; ATP concentration: 500 uM; one replicate
In short: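 Exposure to 500 uM ATP lasted 15 min at 22 °C before imaging, and a selection-buffer image was taken beforehand, for Cy3-labelled switching-strand clusters on a modified Illumina MiSeq flow-cell annealed to 100 nM quencher-labelled ATP aptamer. Five buffer/ATP cycles were run with NaOH stripping and re-annealing between them. The fluorescence ratio per cluster is summed target-cycle over summed buffer-cycle Cy3 intensity, averaged per switch-domain sequence. Clusters outside 100-1000 RFU were excluded.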

Sequence	switch fluorescence ratio
CCTAGGACG	0.992
CGTCCATGTT	1
GGACAGATGC	1.11
AAGACGCTGG	1.01
TCTTACAATG	0.978
AAGGATCAG	0.983
TTGGTTCGGG	0.973
GGGCCGTGCG	1
CAGTGATGGG	1.03
TCCTTCCGTT	1.25
CTTAGAGGGA	1.04
ATACATGTCA	0.966
CATGTCGCAC	1.18
TCAATTATGT	0.998
AATGGGCAGG	1.07
GATAACCTAG	1.06
TATTCCGTTA	1.04
AACGTAATCA	1.11
CAGCGCAGCC	0.998
GAGGTGTCTG	0.996
GGGCACTAGC	1.05
CCACCACTTT	1.03
TAGTGGGACT	1.04
TTCAGGTCCA	1.02
CTTGAGTGGA	0.992
GGTCTGAGGA	1.01

Sequence	switch fluorescence ratio
TCAACCCCTT	0.993
ATTGTGGCTC	0.99
TCCAGCTGCG	0.991
TACTGGTTTC	0.976
TTTTCGAAGT	1
TCGTCTGCA	1.72
ACATTATCTT	1.1
ATAGTGCATT	1
ATGTCCGTTT	0.967
CATATTCCCC	0.992
GTGGTATATC	0.965
AGCGGTAACC	1.04
ATGTATATTA	1.05
GGAATTGTCA	1.01
AGTCGGGATA	0.968
GCAGTCCATA	0.965
TAGGGGGCA	0.991
CGCGTAGGGG	1
TCTCTGGGTG	1.06
TCATCGCAAT	3.17
GAGCCTAACT	0.984
GTTACGGATC	1.02
TATTAGCAAC	1.12
TCGGGGTAGT	1.01
GTGCCTTAGT	0.997
CTTTTTAATT	0.95

Sequence	switch fluorescence ratio
TTTGACTACC	1.18
GAGCGTCTAC	1.09
CAGGATGAGG	0.975
ATCTGTCACA	1.01
CTTTGGATAC	1.48
TACTGAATTG	1.01
GTGAGCGGTG	1
GCTACGGAGA	1.1
CAGGCTAATG	1
AACGTTCCAA	1.11
TCATTCGGA	1.03
GTAAGGACGG	1.01
TTGTTGGCCT	1.04
GATTTCTATA	1.01
CATAGTAGAC	1.12
CTTTGCTTGA	1.08
TGGACCAGGG	1.04
GTGTGGTTAA	1
GCTGCGTAGC	1.02
GTTGAGGCGC	0.963
CGAACTTAAT	1.05
GACCATTGAA	1.01
TACTGTCGCC	1.03
TGTGACACAG	0.949
ACTAATGCGT	1.01
GTTGCTCGTG	0.996

Sequence	switch fluorescence ratio
TATTTTCGT	0.96
TAATTTAGCG	1.01
CAACGTTTAG	1.02
CGCGTCCCAA	1.22
GGAGATCTGA	1.06
CCCCAAGTTA	1.06
ATGCTTACCG	0.972
TTCGGGGT	0.999
GACGTGCAAA	1.13
GCGTACGGCC	1.03
CACACTTC	1.05
TGTTGGAGTC	1.08
GAGGACGATC	1.01
AGCAGCCGAA	1
TTCTGCGGT	1.1
TTTCATAATA	1.04
CATAATGTTA	0.989
TGATACACGA	1.03
TATGGTTTGC	1.01
TGAAACGGAT	1.01
TGGTTAGTAG	0.997
GACTGGAGCC	1.09
GCTCCGCTCT	3.38
ATAACAAGCT	1.01
GGGAAGCCGG	0.997
ACATTTCTGT	0.998

Sequence	switch fluorescence ratio
ATGGAGGGTT	1
GTCAATAGCC	1.08
GTGGTCGGAT	0.99
ATGTCCTGCA	1.03
CGTTGAGACG	0.95
AAGCCATGAG	1.02
TAGGGACACG	1.04
ACTTATCGCG	1.02
TCCAGTTGGC	1.06
GATTTTTCCG	1.04
TACGTCTTAA	1.03
AATATTATTG	0.982
CGCTCTGCCT	1.02
TTTGTTAGGA	0.983
GATGTGTTAA	1.01
CCCCAGGTCC	2.74
AGGAGCGCCC	0.965
AGGGCCCCAC	0.993
GCATTACGAC	3.47
TCTGGGGAGC	0.93
TCCGCGGTAT	2.94
AGGAGTAACT	1
CCCACGGAGG	1.04
ATAATCCATG	1.02
ACAGTCCGGG	1.03
GCGAAAAGGT	0.962

Sequence	switch fluorescence ratio
ATCGGGCG	0.989
CGTTAATAGG	1.03
TCGAGGACTT	1.01
GAAAATAGTT	0.966
TTAATCTGCA	1.03
CTAGAGTCGG	1.06
GTCATAGTAG	1.01
CATGTTAAGT	0.969
TTGAGCTATT	1.17
ATTAGGGCTA	0.997
CTTTCTCCGG	1.17
GCATAACTTC	1.16
AGATGAATAA	0.994
TCAATCTATT	1.01
TATACCTGCA	1.22
ATGCGCTCTG	0.988
GATGACACTA	1.07
TTAGCTTCAG	1.05
CGGTAGAATG	1.01
GCACGACTGA	1.06
GCACTGAACT	1.14
GTTCTTTCGC	1.08
ATTACCTGCA	1.16
